US20240101675A1 (BIOLOJIC DESIGN, published 2024)

Legend:
[1] = target: T1, IL-13R/IL-4R receptor complex on HEK-Blue IL-4/IL-13 cells (UniProt P78552 22-427; P24394 26-825, limits assumed); test: cell-based or functional assay
[2] = target: T1, IL-13R/IL-4R receptor complex on …; test: cell-based or functional assay; remark: listed apart in the source
[3] = target: T2, BDG33.023; test: competition ELISA: 20 nM IgG pre-incubated with soluble hIL-13 (0.78-200 nM), then on a plate coated with hIL-13; bound IgG by anti-human Fc-HRP
T2 construct: IgG (human IgG1 format, symmetrical IgG); also called BGD33.023; BGD33.0023

[4] = target: anti-IL-13 control antibody; test: as above

T2 sequence (VH, as listed by the source, chain 1 of 2): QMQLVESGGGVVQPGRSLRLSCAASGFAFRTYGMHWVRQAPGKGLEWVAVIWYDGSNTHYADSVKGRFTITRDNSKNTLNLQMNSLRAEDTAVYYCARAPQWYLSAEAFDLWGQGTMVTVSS
T2 sequence (VL, as listed by the source, chain 2 of 2): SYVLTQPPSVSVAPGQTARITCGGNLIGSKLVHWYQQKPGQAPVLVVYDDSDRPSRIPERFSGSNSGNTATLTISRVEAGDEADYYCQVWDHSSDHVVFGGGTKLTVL

B1: recombinant human IL-13 (ligand)
chain: not shown
notes: also called rh-IL-13; rhIL-13
EC50, HEK-Blue IL-4/IL-13 STAT6-SEAP reporter cells [1]: ~0.12 nM
EC50 (read off the curve); HEK-Blue IL-4/IL-13 STAT6-SEAP reporter, OD 655 nM [2]: ~0.1 nM
IC50 (read off the curve) [3]: ~20 nM
IC50 (read off the curve) [4]: ~10 nM
